Data published in PubChem BioAssay AID445 (National Center for Advancing Translational Sciences (NCATS), 2006).
In all, about 110,000 compounds went through this assay and about 40 (0.04%) were called active. Inconclusive results, whose numbers are uncertain, are shown with a selection of clear calls. The call rests on the fitted dose curve; in most records, active means well fitted curve in the direction sought with a large enough effect in the signal ratio (not every such curve was filed as active); inconclusive means small, poorly fitted or top-dose-only effect, or a change in a side signal; inactive means flat fitted curve, though single readings scatter; the % refers to the signal ratio. Potencies beside an inconclusive call are fits to weak or partial responses and may not hold up.

Experiment: IkB Signaling;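 on IkBa stabilization activation: 0% = basal untreated cells and 100% = reference inhibitor full response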
Details: ABC-DLBCL IkBa-CBG/CBR dual luciferase ratio (green luciferase fused to IkBa over red control in OCI-Ly3 lymphoma cells), 4 h; IkBa stabilization activation: at 57.1 µM (top of the series), scaled: untreated 0%, proteasome inhibitor 100% unless noted
How it was run: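 Curves were fitted separately to fusion (green), unfused (red) and ratio luminescence, then classed by r2, magnitude and activity. Cells: OCI-Ly3, 4 h compound plus doxycycline at 37C; 10 uM MG-132 defined full response.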
Potency means the concentration at half of the fitted maximal effect.

| Structure (SMILES) | IkBa stabilization activation | Potency |
| --- | --- | --- |
| Cc1ccc2c(c1)c(C)c(C)n2CC(O)Cn1nnc2ccccc21 (centres undefined) | inconclusive: 2.77% [signal inhibitor] | – |
| CCN(CC)Cc1c[nH]c2c(C(=O)OC)cccc12 | – | inconclusive: 12.6 µM [signal inhibitor, partial curve] |
| CCOC(=O)c1[nH]c(C)c(CCC(=O)Nc2cc(Cl)c(OC)cc2OC)c1C | inconclusive: 1.5% [signal inhibitor] | – |
| OCCN1CCN(CCC=C2c3ccccc3Sc3ccc(Cl)cc32)CC1 | inactive: 1.17% [at 25.6 µM, scaled: untreated 0%, proteasome inhibitor 100%] | – |
| CCC(C)NC(=O)c1cn(CC)c2ccc(S(=O)(=O)N3CCc4ccccc4C3)cc2c1=O (centres undefined) | inconclusive: 1.15% [signal inhibitor] | – |
| COc1ccc(NC(=O)CN2CCN(c3ccc(Cl)cc3)CC2)c(OC)c1 | inactive: -0.492% | – |
| O=C(NCc1ccccc1Cl)c1ccc2c(c1)N(Cc1ccccc1)CCS2 | inconclusive: 8.04% [signal inhibitor] | – |
| O=C(NC1CCCCCC1)c1ccc(CS(=O)c2cccc(Cl)c2)o1 (centres undefined) | inactive: -0.378% | – |
| CCOc1ccc2nc(N3CCCC(C(=O)NCCc4ccc(C)cc4)C3)sc2c1 (centres undefined) | inconclusive: -1.84% [signal inhibitor] | – |
| CC(C(=O)Nc1ccccc1)n1nnc2sc3c(c2c1=O)CCCC3 (centres undefined) | inconclusive: 13.9% [signal inhibitor] | – |
| Cc1nc2c(oc3ccccc32)c(=O)o1 | – | inconclusive: 6.31 µM [signal inhibitor, partial curve] |
| COc1ccc(NC(=O)CN2CCN(CC(=O)Nc3ccccc3Cl)CC2)cc1Cl | inconclusive: 1.24% [signal inhibitor] | – |
| Cc1cccc(NC(=O)Nc2nnc(N3CCCC3)s2)c1 | inconclusive: 3.58% [signal inhibitor] | – |
| CCCCn1c(CNC(=O)C23CC4CC(CC(C4)C2)C3)nnc1SCC(=O)Nc1ccc(F)cc1 | inconclusive: 5.07% [signal inhibitor] | – |
| O=C(CSc1nnc(-c2c[nH]c3ccccc23)n1-c1ccc(F)cc1)NCc1ccco1 | inconclusive: 3.06% [signal inhibitor] | – |
| O=C1CCCN1CCC1CCN(C(=O)Nc2ccccc2)CC1 | inactive: -2.18% | – |
| Cc1ccc(NC(=O)C2CCCN2S(=O)(=O)c2ccc3nc(-c4ccccc4)[nH]c3c2)cc1C (centres undefined) | inconclusive: -0.617% [signal inhibitor] | – |
| CCOC(=O)N1CCN(C(=O)CSCC(=O)Nc2nc(-c3ccc(Cl)s3)cs2)CC1 | – | inconclusive: 31.6 µM [signal inhibitor, partial curve] |
| CC(C)C(=O)Nc1cccc(C(=O)Nc2nnc(C(F)(F)F)s2)c1 | – | inconclusive: 25.1 µM [signal inhibitor, partial curve] |
| CCOc1ccccc1NC(=O)CCc1c(C)nc2cc(-c3ccccc3)nn2c1C | inconclusive: 0.386% [signal inhibitor] | – |
| COc1cccc(NC(=O)Cn2c(=O)n(CCc3cccc(C)c3)c(=O)c3ccccc32)c1 | inconclusive: 1.27% [signal inhibitor] | – |
| CCOCCCn1c(=N)c(C(=O)NCc2ccccc2)cc2c(=O)n3ccccc3nc21 | inactive: -1.57% | – |
| Cc1cccc(NC(=O)c2c(NC(=O)c3ccco3)sc3c2CCC(C)C3)c1 (centres undefined) | inconclusive: 8% [signal inhibitor] | – |

| Structure (SMILES) | IkBa stabilization activation | Potency |
| --- | --- | --- |
| O=C(NCc1ccccc1Cl)c1ccc(-n2cnc3cccnc32)cc1 | inconclusive: 3.55% [signal inhibitor] | – |
| CCN(CC)C(=O)CSc1ncnc2c(-c3cccs3)nsc12 | inconclusive: 8.07% [signal inhibitor] | – |
| Cn1c(/C(C#N)=C/c2ccc(C(F)(F)F)cc2)nc2ccccc21 | – | inconclusive: 39.8 µM [signal inhibitor, single point] |
| CCNc1ncc2nc(-c3cc(F)cc(F)c3)c(=O)n(C)c2n1 | inactive: -5.95% [at 11.4 µM, scaled: untreated 0%, proteasome inhibitor 100%] | – |
| Cc1ccc(CNC(=O)CSCc2nc(-c3cccc(C)c3)oc2C)cc1 | inconclusive: 6.19% [signal inhibitor] | – |
| COc1ccc(C(C)=O)cc1COC(=O)c1cnc(C)cn1 | inactive: -3.45% | – |
| CCOc1ccc(OCC)c(NC(=O)C2CCCN(S(=O)(=O)c3ccc(C)cc3)C2)c1 (centres undefined) | inconclusive: 1.75% [signal inhibitor] | – |
| O=C(O)CCC(=O)c1ccc(-c2ccccc2)cc1 | inconclusive: 3.25% [signal inhibitor] [at 25.6 µM, scaled: untreated 0%, proteasome inhibitor 100%] | – |
| CNc1sc(C(=O)c2cccs2)c(N)c1-c1nc2ccccc2s1 | inconclusive: 9.55% [signal inhibitor] | – |
| Cc1ccn2c(Nc3ccc4c(c3)OCCO4)c(-c3ccc(N(C)C)cc3)nc2c1 | inactive: 3.06% | – |
| Cc1ccc(OCC(=O)Nc2cccc3ccc(C)nc23)c(C)c1 | inactive: 0.379% | – |
| Cc1cccc(NC(=O)COc2ccc3oc4c(c3c2)CCCC4)c1 | inconclusive: 15.6% [signal inhibitor] | – |
| Cn1c(CN2CCOCC2)nc2cc(NC(=O)c3ccccc3Cl)ccc21 | inconclusive: 7.5% [signal inhibitor] | – |
| CCCN1Cc2cccc(C(=O)Nc3ccc4c(c3)OCCO4)c2C1=O | inactive: -3.66% | – |
| Cc1ccc(N2CC(C(=O)NCc3nnnn3-c3ccc(C)c(C)c3)CC2=O)cc1 (centres undefined) | inconclusive: -0.0939% [signal inhibitor] | – |
| Cc1csc(SCC(=O)Nc2ccc(Cl)cn2)n1 | inconclusive: 3.45% [signal inhibitor] | – |
| CCOc1ccc(NC(=O)Cn2c(=O)n(Cc3ccc(C(=O)NCc4ccc5c(c4)OCO5)cc3)c(=O)c3ccccc32)cc1 | inactive: 1.12% | – |
| CCCCOc1ccc(C(=O)Nc2ccc3c(c2)CCCN3S(=O)(=O)c2ccc(C)cc2)cc1 | inconclusive: 0.647% [signal inhibitor] | – |
| O=C(Nc1ncc2c(n1)CC(c1ccccc1)CC2=O)c1ccco1 (centres undefined) | inactive: -1.09% | – |
| O=C(NCc1ccccn1)c1nn(-c2ccccc2F)nc1CO | inconclusive: -1.82% [signal inhibitor] | – |
| CCOc1ccccc1CN1CCc2nc(Nc3ccccc3)ncc2C1 | inconclusive: 1.84% [signal inhibitor] | – |
| Fc1ccc(-n2ncc3c(N4CCN(Cc5ccccc5)CC4)ncnc32)cc1 | inconclusive: 2.89% [signal inhibitor] | – |
| COc1cccc(CNC(=O)CSc2n[nH]c(-c3ccccc3Cl)n2)c1 | inconclusive: -0.847% [signal inhibitor] | – |

| Structure (SMILES) | IkBa stabilization activation | Potency |
| --- | --- | --- |
| CCc1ccc(CNC(=O)c2ccc3c(c2)nc2n3CCCCC2)cc1 | inconclusive: 6.47% [signal inhibitor] | – |
| COc1ccc(OC)c(CCNC(=O)CN2C(=O)COc3ccc(S(=O)(=O)N4CCCCCC4)cc32)c1 | inconclusive: -2.5% [signal inhibitor] | – |
| COCC(=O)Nc1c(C(=O)Nc2ccccc2OC)oc2ccccc12 | inactive: 0.152% | – |
| COc1cccc(CNC(=O)CCNS(=O)(=O)c2ccc3c(c2)CCCC(=O)N3)c1 | inconclusive: -1.72% [signal inhibitor] | – |
| CCCN(CCC)c1ncnc2c1cnn2-c1ccc(OC)cc1 | inactive: -2.35% | – |
| O=C(Nc1c2c(nn1-c1ccc(Cl)cc1)CS(=O)(=O)C2)c1cccc(Cl)c1 | inconclusive: 3.06% [signal inhibitor] | – |
| CCc1cccc(NC(=O)CN2c3ccccc3S(=O)(=O)c3ccccc32)c1 | inconclusive: -0.0834% [signal inhibitor] | – |
| N[C@H](Cc1cccc(-c2ccccc2CP(=O)(O)O)c1)C(=O)O | inactive: 0.355% | – |
| O=C(c1ccc(F)cc1)n1nc(-c2ccc(Cl)cc2)nc1NCc1ccco1 | inconclusive: 11.1% [signal inhibitor] | – |
| COc1ccccc1NC(=O)Cn1nc(C)n2cccc2c1=O | inconclusive: 16.6% [signal inhibitor] | – |
| Cc1ccc(CNC(=O)Cn2ccn(-c3cc(C)cc(C)c3)c(=O)c2=O)cc1 | inconclusive: 1.1% [signal inhibitor] | – |
| CCn1c(SCC(=O)Nc2nc(-c3ccc(C)cc3)cs2)nnc1-c1ccccc1O | inconclusive: -2.61% [signal inhibitor] | – |
| O=C(CSc1nc2ccccc2nc1Cc1ccccc1)N1CCCc2ccccc21 | inconclusive: 1.55% [signal inhibitor] | – |
| CCc1cc2c(=O)n(Cc3ccco3)c(SCC(=O)N3CCCc4ccccc43)nc2s1 | inconclusive: 1.04% [signal inhibitor] | – |
| CCc1ccc2occ(CC(=O)N(Cc3ccc(N(C)C)cc3)C3CCS(=O)(=O)C3)c2c1 (centres undefined) | inconclusive: -0.93% [signal inhibitor] | – |
| CCOC(=O)c1cccc(NC(=O)c2sc3nc[nH]c(=O)c3c2C)c1 | inconclusive: -1.68% [signal inhibitor] | – |
| Cc1oc(-c2ccc(Cl)cc2)nc1CN1CCCC(C(=O)NCc2ccco2)C1 (centres undefined) | inconclusive: 2.17% [signal inhibitor] | – |
| O=Nc1ccc(Nc2ccccc2)cc1 | inconclusive: -5.19% [signal inhibitor] | – |
| CC(C)OCCCNC(=O)c1c(N)n(/N=C/c2ccccn2)c2nc3ccccc3nc12 | inactive: 3.04% | – |
| CCCCn1c(NC(=O)CC)c(C#N)c2nc3ccccc3nc21 | inconclusive: 0.323% [signal inhibitor] | – |
| Cc1ccc2cc3c(N)c(C(=O)N4CCOCC4)sc3nc2c1 | inconclusive: 15.7% [signal inhibitor] | – |
| O=C(C1CCCCC1)N(Cc1cccnc1)c1nc2ccc(F)cc2s1 | inconclusive: 5.16% [signal inhibitor] | – |
| COc1ccc2[nH]c3c(=O)n(CCCCC(=O)N4CCCC4)c(=S)[nH]c3c2c1 | – | inconclusive: 25.1 µM [signal inhibitor, partial curve] |
